Laboratory results as given in PMC3764795.
Results are given in words; binding and its absence hold for the method and conditions named. In cells and extracts the contact can be indirect. Some results given as binding are weak or reduced against the parent protein; the word gives no strength. For part of these data: Where a sequence is shown, tags or fusion partners need not be part of it.

Sequences of proteins named here, by UniProt entry; tags and fusion partners are left off. A change or cut given only in a name is not applied to a line headed by its entry. A line that says so, or that is headed by a name, gives the form on record, which may keep a tag or linker.
UniProt Q14155: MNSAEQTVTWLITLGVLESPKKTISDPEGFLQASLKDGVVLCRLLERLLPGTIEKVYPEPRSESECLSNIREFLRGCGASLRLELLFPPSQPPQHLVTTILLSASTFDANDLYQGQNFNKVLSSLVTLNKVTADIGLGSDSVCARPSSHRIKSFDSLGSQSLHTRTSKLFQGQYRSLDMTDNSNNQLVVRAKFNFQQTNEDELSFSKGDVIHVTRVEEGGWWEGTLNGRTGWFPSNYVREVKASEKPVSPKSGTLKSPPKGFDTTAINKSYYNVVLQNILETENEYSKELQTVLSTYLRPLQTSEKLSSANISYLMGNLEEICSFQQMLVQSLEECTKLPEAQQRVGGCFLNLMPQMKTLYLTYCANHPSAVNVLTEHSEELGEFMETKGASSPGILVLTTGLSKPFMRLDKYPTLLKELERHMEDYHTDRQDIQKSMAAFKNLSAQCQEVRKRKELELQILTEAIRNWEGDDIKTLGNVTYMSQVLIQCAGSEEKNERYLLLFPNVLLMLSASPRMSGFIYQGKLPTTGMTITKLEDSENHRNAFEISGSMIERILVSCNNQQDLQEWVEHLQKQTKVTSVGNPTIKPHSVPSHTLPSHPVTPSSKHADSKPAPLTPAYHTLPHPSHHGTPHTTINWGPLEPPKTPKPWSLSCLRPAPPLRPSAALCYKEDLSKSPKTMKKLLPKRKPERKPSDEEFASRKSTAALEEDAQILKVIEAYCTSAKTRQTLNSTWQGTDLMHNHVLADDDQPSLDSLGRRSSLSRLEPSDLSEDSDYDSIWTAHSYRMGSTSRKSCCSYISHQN
UniProt P62993: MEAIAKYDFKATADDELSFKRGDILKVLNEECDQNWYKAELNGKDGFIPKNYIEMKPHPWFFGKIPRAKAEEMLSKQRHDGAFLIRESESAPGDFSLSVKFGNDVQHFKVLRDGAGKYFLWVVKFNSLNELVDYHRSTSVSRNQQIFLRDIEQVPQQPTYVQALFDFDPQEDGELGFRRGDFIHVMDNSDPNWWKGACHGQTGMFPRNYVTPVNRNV
UniProt Q9GZV5: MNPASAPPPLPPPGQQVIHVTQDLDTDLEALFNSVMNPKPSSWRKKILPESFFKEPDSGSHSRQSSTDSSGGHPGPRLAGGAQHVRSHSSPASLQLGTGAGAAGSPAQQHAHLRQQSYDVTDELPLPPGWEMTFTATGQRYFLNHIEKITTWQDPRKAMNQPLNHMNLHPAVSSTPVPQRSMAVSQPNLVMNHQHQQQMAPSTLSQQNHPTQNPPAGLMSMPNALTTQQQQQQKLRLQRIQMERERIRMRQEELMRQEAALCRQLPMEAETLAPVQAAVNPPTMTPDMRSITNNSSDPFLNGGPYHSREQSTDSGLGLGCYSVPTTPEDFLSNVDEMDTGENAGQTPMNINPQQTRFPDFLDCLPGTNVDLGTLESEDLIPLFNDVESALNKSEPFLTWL
3×FLAG-tagged TAZ (∂WW) (Q9GZV5, form named): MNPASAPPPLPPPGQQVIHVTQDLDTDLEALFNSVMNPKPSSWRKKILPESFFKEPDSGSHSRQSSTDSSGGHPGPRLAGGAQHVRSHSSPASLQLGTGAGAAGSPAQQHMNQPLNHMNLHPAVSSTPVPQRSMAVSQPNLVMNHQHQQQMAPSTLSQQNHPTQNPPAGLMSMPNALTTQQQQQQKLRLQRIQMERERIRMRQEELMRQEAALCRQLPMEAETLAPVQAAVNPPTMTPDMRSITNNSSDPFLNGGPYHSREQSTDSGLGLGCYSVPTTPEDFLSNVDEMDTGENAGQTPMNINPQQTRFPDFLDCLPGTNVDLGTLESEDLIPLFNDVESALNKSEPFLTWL
UniProt P46934: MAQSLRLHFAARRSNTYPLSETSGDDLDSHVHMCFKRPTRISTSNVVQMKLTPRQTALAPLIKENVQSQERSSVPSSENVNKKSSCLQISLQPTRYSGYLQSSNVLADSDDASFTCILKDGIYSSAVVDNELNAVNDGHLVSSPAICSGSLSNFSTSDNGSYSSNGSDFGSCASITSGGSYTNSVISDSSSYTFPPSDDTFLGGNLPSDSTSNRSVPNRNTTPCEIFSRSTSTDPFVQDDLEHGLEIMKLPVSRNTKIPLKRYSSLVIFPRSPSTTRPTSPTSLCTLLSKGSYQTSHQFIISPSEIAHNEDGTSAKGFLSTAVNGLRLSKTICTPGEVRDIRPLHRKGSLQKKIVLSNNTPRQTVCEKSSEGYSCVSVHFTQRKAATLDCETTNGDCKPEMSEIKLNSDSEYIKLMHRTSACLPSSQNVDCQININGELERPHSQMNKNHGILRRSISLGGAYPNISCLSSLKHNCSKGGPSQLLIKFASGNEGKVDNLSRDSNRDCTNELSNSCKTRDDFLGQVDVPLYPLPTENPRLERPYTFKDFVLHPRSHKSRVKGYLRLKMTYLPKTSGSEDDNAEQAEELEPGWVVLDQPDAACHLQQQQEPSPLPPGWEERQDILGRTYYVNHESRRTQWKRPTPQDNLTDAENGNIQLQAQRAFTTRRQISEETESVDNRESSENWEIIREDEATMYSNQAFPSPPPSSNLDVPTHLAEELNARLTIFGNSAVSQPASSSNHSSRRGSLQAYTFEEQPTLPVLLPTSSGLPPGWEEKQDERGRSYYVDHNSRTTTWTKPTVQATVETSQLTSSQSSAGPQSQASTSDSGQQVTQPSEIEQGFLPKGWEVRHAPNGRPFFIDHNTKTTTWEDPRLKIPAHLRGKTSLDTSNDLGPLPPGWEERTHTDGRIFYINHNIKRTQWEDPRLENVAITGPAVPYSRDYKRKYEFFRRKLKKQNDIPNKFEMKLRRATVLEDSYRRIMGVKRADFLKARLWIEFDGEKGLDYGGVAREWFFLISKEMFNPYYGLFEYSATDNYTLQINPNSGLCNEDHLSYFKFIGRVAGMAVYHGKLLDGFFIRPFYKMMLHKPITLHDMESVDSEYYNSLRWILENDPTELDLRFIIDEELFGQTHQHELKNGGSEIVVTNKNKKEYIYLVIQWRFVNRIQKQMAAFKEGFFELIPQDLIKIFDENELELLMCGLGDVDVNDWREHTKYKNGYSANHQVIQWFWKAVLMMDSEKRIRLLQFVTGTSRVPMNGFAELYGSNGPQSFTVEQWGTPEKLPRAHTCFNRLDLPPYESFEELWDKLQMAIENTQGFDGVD

T1: GST-tagged cytosolic PRRG4 (GST-PRRG4cyto) (human) (UniProt Q9BZD6)
T1 sequence: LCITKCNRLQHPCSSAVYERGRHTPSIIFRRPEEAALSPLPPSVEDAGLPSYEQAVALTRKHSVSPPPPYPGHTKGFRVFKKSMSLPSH

T2: GST-PRRG4 Y207A (human) (UniProt Q9BZD6)
T2 sequence: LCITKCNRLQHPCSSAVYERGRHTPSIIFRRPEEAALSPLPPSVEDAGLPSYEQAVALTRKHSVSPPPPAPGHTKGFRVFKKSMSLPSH

T3: FLAG-Myc-tagged OSTF (UniProt Q92882)
T3 sequence: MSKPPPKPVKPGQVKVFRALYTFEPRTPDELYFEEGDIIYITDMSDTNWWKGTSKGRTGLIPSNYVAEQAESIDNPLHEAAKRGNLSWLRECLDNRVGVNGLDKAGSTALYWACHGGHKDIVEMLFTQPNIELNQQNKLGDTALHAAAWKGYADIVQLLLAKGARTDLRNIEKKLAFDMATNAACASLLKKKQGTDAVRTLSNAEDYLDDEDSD


Columns and labels:
[1] = target: T1, GST-tagged cytosolic PRRG4 (GST-PRRG4cyto) (human); experiment: pull-down; GST pulldown with GST-PRRG4cyto (wild type or mutant) or GST only made in E. coli; overexpressed or endogenous proteins of cells; Western blot with anti-FLAG or antibodies against the interacting proteins; only the target purified
[2] = target: T2, GST-PRRG4 Y207A (human); experiment: as above
[3] = target: FLAG-tagged cool1/βPIX (UniProt Q14155); experiment: co-IP; cytosolic PRRG4 co-expressed with FLAG-tagged proteins in HEK293; anti-FLAG immunoprecipitation from lysates, immunoblot with anti-PRRG4
[4] = target: T3, FLAG-Myc-tagged OSTF; experiment: as above
[5] = target: FLAG-Myc-tagged GRB2 (human) (UniProt P62993); experiment: as above
[6] = target: FLAG-tagged WWTR1/TAZ, wild type (human (OriGene clone); not stated (Addgene clone)) (UniProt Q9GZV5); experiment: as above

| binding [1] | binding [2] | Molecule | further results |
| --- | --- | --- | --- |
| binds | – | 3×FLAG-tagged TAZ (S89A) (from UniProt Q9GZV5 1-400) | – |
| binds | – | 3×FLAG-tagged TAZ (∂393) (from UniProt Q9GZV5 1-393) (domain or fragment) | – |
| binds | – | 3×FLAG-tagged TAZ (∂WW) (from UniProt Q9GZV5 1-400) | – |
| binds | binds | FLAG-tagged WWTR1/TAZ, wild type (from UniProt Q9GZV5 1-400) | – |
| no binding | – | FLAG-tagged cool1/βPIX (from UniProt Q14155 1-803) | – |
| binds | binds | endogenous NEDD4 (from UniProt P46934 1-1319) | – |
| binds | binds | MAGI-3 (protein, UniProt Q5TCQ9 1-1481) MSKTLKKKKHWLSKVQECAVSWAGPPGDFGAEIRGGAERGEFPYLGRLREEPGGGTCCVVSGKAPSPGDVLLEVNGTPVSGLTNRDTLAVIRHFREPIRLKTVKPGKVINKDLRHYLSLQFQKGSIDHKLQQVIRDNLYLRTIPCTTRAPRDGEVPGVDYNFISVEQFKALEESGALLESGTYDGNFYGTPKPPAEPSPFQPDPVDQVLFDNEFDAESQRKRTTSVSKMERMDSSLPEEEEDEDKEAINGSGNAENRERHSESSDWMKTVPSYNQTNSSMDFRNYMMRDETLEPLPKNWEMAYTDTGMIYFIDHNTKTTTWLDPRLCKKAKAPEDCEDGELPYGWEKIEDPQYGTYYVDHLNQKTQFENPVEEAKRKKQLGQVEIGSSKPDMEKSHFTRDPSQLKGVLVRASLKKSTMGFGFTIIGGDRPDEFLQVKNVLKDGPAAQDGKIAPGDVIVDINGNCVLGHTHADVVQMFQLVPVNQYVNLTLCRGYPLPDDSEDPVVDIVAATPVINGQSLTKGETCMNPQDFKPGAMVLEQNGKSGHTLTGDGLNGPSDASEQRVSMASSGSSQPELVTIPLIKGPKGFGFAIADSPTGQKVKMILDSQWCQGLQKGDIIKEIYHQNVQNLTHLQVVEVLKQFPVGADVPLLILRGGPPSPTKTAKMKTDKKENAGSLEAINEPIPQPMPFPPSIIRSGSPKLDPSEVYLKSKTLYEDKPPNTKDLDVFLRKQESGFGFRVLGGDGPDQSIYIGAIIPLGAAEKDGRLRAADELMCIDGIPVKGKSHKQVLDLMTTAARNGHVLLTVRRKIFYGEKQPEDDSSQAFISTQNGSPRLNRAEVPARPAPQEPYDVVLQRKENEGFGFVILTSKNKPPPGVIPHKIGRVIEGSPADRCGKLKVGDHISAVNGQSIVELSHDNIVQLIKDAGVTVTLTVIAEEEHHGPPSGTNSARQSPALQHRPMGQSQANHIPGDRSALEGEIGKDVSTSYRHSWSDHKHLAQPDTAVISVVGSRHNQNLGCYPVELERGPRGFGFSLRGGKEYNMGLFILRLAEDGPAIKDGRIHVGDQIVEINGEPTQGITHTRAIELIQAGGNKVLLLLRPGTGLIPDHGDWDINNPSSSNVIYDEQSPLPPSSHFASIFEESHVPVIEESLRVQICEKAEELKDIVPEKKSTLNENQPEIKHQSLLQKNVSKRDPPSSHGHSNKKNLLKVENGVTRRGRSVSPKKPASQHSEEHLDKIPSPLKNNPKRRPRDQSLSPSKGENKSCQVSTRAGSGQDQCRKSRGRSASPKKQQKIEGSKAPSNAEAKLLEGKSRRIAGYTGSNAEQIPDGKEKSDVIRKDAKQNQLEKSRTRSPEKKIKRMVEKSLPSKMTNKTTSKEVSENEKGKKVTTGETSSSNDKIGENVQLSEKRLKQEPEEKVVSNKTEDHKGKELEAADKNKETGRFKPESSSPVKKTLITPGPWKVPSGNKVTGTIGMAEKRQ | – |
| no binding | – | FLAG-Myc-tagged OSTF (protein, UniProt Q92882 1-214) MSKPPPKPVKPGQVKVFRALYTFEPRTPDELYFEEGDIIYITDMSDTNWWKGTSKGRTGLIPSNYVAEQAESIDNPLHEAAKRGNLSWLRECLDNRVGVNGLDKAGSTALYWACHGGHKDIVEMLFTQPNIELNQQNKLGDTALHAAAWKGYADIVQLLLAKGARTDLRNIEKKLAFDMATNAACASLLKKKQGTDAVRTLSNAEDYLDDEDSD | – |
| – | – | Cytosolic PRRG4 in a mammalian expression vector (domain or fragment, UniProt Q9BZD6 138-226) LCITKCNRLQHPCSSAVYERGRHTPSIIFRRPEEAALSPLPPSVEDAGLPSYEQAVALTRKHSVSPPPPYPGHTKGFRVFKKSMSLPSH | binding [3]: no binding; binding [4]: no binding; binding [5]: no binding; binding [6]: binds |
